By IC50 is meant the dose at which the fit gives 50% viability; a fit beyond the top or the lowest dose is shown as a bound at that dose. AUC is the area under the same curve over the 256-fold range up to the top dose, as a fraction; values near 1 show little effect. For some of these results: A top dose marked as inferred was calculated from the reported fits.
What was measured:
Assay in all cases: Viability of human cancer cell lines after 72 h of drug (GDSC screen)
BMX-IN-1 (QL-XII-61) = compound: C=CC(=O)Nc1cc(-n2c(=O)ccc3cnc4ccc(-c5ccc(NS(C)(=O)=O)cc5)cc4c32)ccc1C [BMX-IN-1 (QL-XII-61)]; conditions: top dose 10 µM; top dose inferred
Description: (§1)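 Human cancer cell lines in 384-well plates, medium with 10% serum, drug for 72 h over a 256-fold dose range (nine 2-fold or five 4-fold steps up to the top dose). Adherent lines were fixed and stained with the nucleic acid dye Syto60, suspension lines read with resazurin; signal relative to control wells, capped at 0 and 100%. One two-parameter sigmoid per drug and line, fitted in a mixed model over all curves with the slope shared within a line.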

17-AAG = compound: C=CCNC1=C2C[C@@H](C)C[C@H](OC)[C@H](O)[C@@H](C)/C=C(\C)[C@H](OC(N)=O)[C@@H](OC)/C=C\C=C(/C)C(=O)NC(=CC1=O)C2=O [17-AAG]; conditions: top dose 1 µM
Description: as §1

CCT018159 = compound: CCc1cc(-c2n[nH]c(C)c2-c2ccc3c(c2)OCCO3)c(O)cc1O [CCT018159]; conditions: top dose 10 µM; top dose inferred
Description: as §1

BIX02189 = compound: CN(C)Cc1cccc(N=C(c2ccccc2)c2c(O)[nH]c3cc(C(=O)N(C)C)ccc23)c1 [BIX02189]; conditions: top dose 20 µM; top dose inferred
Description: as §1

Dimethyloxalylglycine = compound: COC(=O)CNC(=O)C(=O)OC [Dimethyloxalylglycine]; conditions: top dose 4000 µM; top dose inferred
Description: as §1

OSI-027 = compound: COc1cccc2cc(-c3nc([C@H]4CC[C@H](C(=O)O)CC4)n4ncnc(N)c34)[nH]c12 [OSI-027]; conditions: top dose 20 µM
Description: as §1

Vismodegib = compound: CS(=O)(=O)c1ccc(C(=O)Nc2ccc(Cl)c(-c3ccccn3)c2)c(Cl)c1 [Vismodegib]; conditions: top dose 10 µM; top dose inferred
Description: as §1

VX-11e = compound: Cc1cnc(Nc2ccc(F)cc2Cl)nc1-c1c[nH]c(C(=O)N[C@H](CO)c2cccc(Cl)c2)c1 [VX-11e]; conditions: top dose 5.12 µM; top dose inferred
Description: as §1

TG101348 = compound: Cc1cnc(Nc2ccc(OCCN3CCCC3)cc2)nc1Nc1cccc(S(=O)(=O)NC(C)(C)C)c1 [TG101348]; conditions: top dose 10.24 µM
Description: as §1

UNC1215 = compound: O=C(c1ccc(C(=O)N2CCC(N3CCCC3)CC2)c(Nc2ccccc2)c1)N1CCC(N2CCCC2)CC1 [UNC1215]; conditions: top dose 1 µM; top dose inferred
Description: as §1

| Cell Line | AUC (BMX-IN-1 (QL-XII-61)) | IC50 (BMX-IN-1 (QL-XII-61)) | AUC (17-AAG) | IC50 (17-AAG) | AUC (CCT018159) | IC50 (CCT018159) | AUC (BIX02189) | IC50 (BIX02189) | AUC (Dimethyloxalylglycine) | IC50 (Dimethyloxalylglycine) | AUC (OSI-027) | IC50 (OSI-027) | AUC (Vismodegib) | IC50 (Vismodegib) | AUC (VX-11e) | IC50 (VX-11e) | AUC (TG101348) | IC50 (TG101348) | AUC (UNC1215) | IC50 (UNC1215) |
| --- | --- | --- | --- | --- | --- | --- | --- | --- | --- | --- | --- | --- | --- | --- | --- | --- | --- | --- | --- | --- |
| NCI-H847 (small cell lung carcinoma, adherent) | 0.841 | 5.11 µM | 0.992 | > 1 µM | 0.986 | > 10 µM | 0.919 | > 20 µM | 0.716 | 887 µM | 0.153 | 0.146 µM | 0.993 | > 10 µM | 0.975 | > 5.12 µM | 0.577 | 0.997 µM | 0.992 | > 1 µM |
| TK10 (kidney, adherent) | 0.795 | 5.75 µM | 0.597 | 0.122 µM | 0.914 | > 10 µM | 0.887 | > 20 µM | 0.555 | 365 µM | 0.518 | 1.42 µM | 0.957 | > 10 µM | 0.811 | 3.44 µM | 0.788 | 5.55 µM | 0.979 | > 1 µM |
| MES-SA (uterus, adherent) | 0.932 | > 10 µM | 0.315 | 0.0207 µM | 0.919 | > 10 µM | 0.991 | > 20 µM | 0.735 | 1040 µM | 0.947 | > 20 µM | 0.992 | > 10 µM | 0.99 | > 5.12 µM | 0.959 | > 10.2 µM | 0.991 | > 1 µM |
| SNB75 (glioma, adherent) | 0.883 | > 10 µM | 0.64 | 0.183 µM | 0.946 | > 10 µM | 0.976 | > 20 µM | 0.563 | 401 µM | 0.818 | 18.9 µM | 0.977 | > 10 µM | 0.95 | > 5.12 µM | 0.835 | > 10.2 µM | 0.976 | > 1 µM |
| A427 (non-small cell lung carcinoma, adherent) | 0.985 | > 10 µM | 0.767 | 0.377 µM | 0.855 | 8.09 µM | 0.939 | > 20 µM | 0.658 | 691 µM | 0.904 | > 20 µM | 0.97 | > 10 µM | 0.967 | > 5.12 µM | 0.924 | > 10.2 µM | 0.985 | > 1 µM |
| SF268 (glioma, adherent) | 0.97 | > 10 µM | 0.773 | 0.42 µM | 0.868 | > 10 µM | 0.929 | > 20 µM | 0.566 | 383 µM | 0.502 | 1.27 µM | 0.982 | > 10 µM | 0.936 | > 5.12 µM | 0.82 | 6.45 µM | 0.978 | > 1 µM |
| SKN (uterus, adherent) | 0.944 | > 10 µM | 0.354 | 0.0225 µM | 0.878 | > 10 µM | 0.939 | > 20 µM | 0.516 | 278 µM | 0.713 | 5.77 µM | 0.981 | > 10 µM | 0.982 | > 5.12 µM | 0.793 | 5.79 µM | 0.971 | > 1 µM |
| SJSA-1 (bone, adherent) | 0.978 | > 10 µM | 0.7 | 0.248 µM | 0.869 | > 10 µM | 0.956 | > 20 µM | 0.516 | – | 0.479 | 1.09 µM | 0.984 | > 10 µM | 0.94 | > 5.12 µM | 0.738 | 3.39 µM | 0.982 | > 1 µM |
| HCC1569 (breast, adherent) | 0.955 | > 10 µM | 0.822 | 0.863 µM | 0.859 | > 10 µM | 0.96 | > 20 µM | 0.781 | 2270 µM | 0.426 | 0.732 µM | 0.953 | > 10 µM | 0.976 | > 5.12 µM | 0.755 | 4.54 µM | 0.978 | > 1 µM |
| NB-4 (acute myeloid leukaemia, suspension) | 0.731 | 2.44 µM | 0.649 | 0.149 µM | 0.882 | 7.31 µM | 0.829 | 9.45 µM | 0.411 | 150 µM | 0.342 | 0.499 µM | 0.977 | > 10 µM | 0.51 | 0.339 µM | 0.417 | 0.395 µM | 0.986 | > 1 µM |
| UACC-62 (melanoma, adherent) | 0.977 | > 10 µM | 0.748 | 0.317 µM | 0.936 | > 10 µM | 0.978 | > 20 µM | 0.819 | 2240 µM | 0.792 | 8.96 µM | 0.988 | > 10 µM | 0.973 | > 5.12 µM | 0.987 | > 10.2 µM | 0.987 | > 1 µM |
| HCC1954 (breast, adherent) | 0.977 | > 10 µM | 0.867 | > 1 µM | 0.876 | > 10 µM | 0.985 | > 20 µM | 0.605 | 509 µM | 0.457 | 0.938 µM | 0.973 | > 10 µM | 0.985 | > 5.12 µM | 0.944 | > 10.2 µM | 0.982 | > 1 µM |
| LS-180 (large intestine, adherent) | 0.983 | > 10 µM | 0.446 | 0.0436 µM | 0.948 | > 10 µM | 0.963 | > 20 µM | 0.605 | 507 µM | 0.761 | 8.06 µM | 0.982 | > 10 µM | 0.894 | > 5.12 µM | 0.931 | > 10.2 µM | 0.983 | > 1 µM |
